First the molecules themselves.
B1: 176637863_176637983_2568_CDS_ENSG00000165671_ENST00000439151|human|control|control (ssRNA)
RNA: GGGAGUUCUACAGUCCGACGAUCUAAAACAUGUUUCACCACUGCUGUUUCUAUGUCACUUGAAUCCCUGGUUUUCUCAUGCAUAUUGUUCAGUAGUUUUAGACCAUCCACUUUCCCACUUUUAGAAAUGCUGGCCAAAGGAGACAACAGAGGAUUGAGCAUCA
B2: 39339409_39339529_308_3pUTR_ENSG00000214114_ENST00000397572|human|control|control (ssRNA)
RNA: GGGAGUUCUACAGUCCGACGAUCUCUCGUCCUGAGAAAGUGCUCACAGUGCUUUGCAGUAGCCGAGGAGGGUGUUUAGAAUCAUAUAUUUUGGCUUCAGCUUUUAUCUUUGGAGUCUCCUUGAGUCGUGGCUGACUUGAUGUGCAACAGAGGAUUGAGCAUCA
B3: 57535670_57543589_642_3pUTR_ENSG00000140262_ENST00000343827|human|control|control (ssRNA)
RNA: GGGAGUUCUACAGUCCGACGAUCAUGAAGGUGCUUGCCCUCCAGGUCUUGGCCACUGACUGGUACCUGUGAGAGGUGAAGGUGAUCCAACUGGUGUUGAUGGAUUUGACGGAAAACUACUGCUGGUAUGGUCAGGAGAAUAAACAACAGAGGAUUGAGCAUCA
B4: chr9:123603995:123603996:-_ENSMUSG00000025245_ENSMUST00000165754|mus_mus|FALSE|FALSE (ssRNA)
RNA: GGGAGUUCUACAGUCCGACGAUCACAGAAUAAAGCAAUUACAAAUUUAGGAAAAUGUAAUAAUUAUCUAAAGCAAAAACUAUUGAGCCUAGAAUAACUCUAAAAUGUUAUUUUGAGGUCCAAAACUAUGUGUUAAGAACUUAGCAACAGAGGAUUGAGCAUCA
B5: chr1:225611761:225611762:-_ENSG00000143815_ENST00000272163|hu_mus|hu_hu_hu_mus_True|1_78 (ssRNA)
RNA: GGGAGUUCUACAGUCCGACGAUCCCAGGCCAUCGGCCUCUGACCACUUCACCCUCAGCAAAUUUCCUACUUGGCAUUUUCUAAAAUUAGUCUGGCCGCGCUCCGGCGGGAACUCCAGCCACUCCAGGACAGUCACCCGCACAGCAACAGAGGAUUGAGCAUCA
B6: 118046813_118053763_277_CDS_ENSMUSG00000017132_ENSMUST00000017276|mouse|control|control (ssRNA)
RNA: GGGAGUUCUACAGUCCGACGAUCCUUUUUAGGAUCCAUGUUAAAUUUCUUUCUGCCCAUGGCUACCUGUUUGUUCCUCUGCAUGUUUUUCCUUUCCUCUGUGGAUCCCAGGCUUUCAAUUUCAUUAGCAACUUCUGCUAUCUCCAACAGAGGAUUGAGCAUCA
B7: 44840585_44845828_1337_CDS_ENSMUSG00000019849_ENSMUST00000099858|mouse|control|control (ssRNA)
RNA: GGGAGUUCUACAGUCCGACGAUCCUCUCGGAAAACCAUGGGCUCCAGUUCCUCUUUGGUAAGAUCGCAGUGGUAAAUGACACCUGGAGAUAGGAAGGAUGUGAACUGGUAGAAGAUCUCAGAGUCCUUCUUGCGCCCACUGUACAACAGAGGAUUGAGCAUCA
B8: chr11:23187360:23187361:+_ENSMUSG00000020290_ENSMUST00000020538|mus_hu|FALSE|FALSE (ssRNA)
RNA: GGGAGUUCUACAGUCCGACGAUCGCUCACCCAACCAGAUAUUAACUUUAAAGUUUCCCUUUUUACAGUUCGCAUACUUCUAAUCAAUGGUUGCUUUGUAACCAUUUCACCAUUAGCUUGGAUAGCUGCAGAAAUAUUUUCACUCAACAGAGGAUUGAGCAUCA
B9: 73041748_73041868_1190_CDS_ENSMUSG00000016382_ENSMUST00000114059|mouse|control|control (ssRNA)
RNA: GGGAGUUCUACAGUCCGACGAUCAAAGGCCAAGUUCAGUUUGGGGUUUCCGCUGACAACAUCAGCUGGAGUAACGAACUGUCUGCAACCUAAUUUAUCUGCUUGUUGAAGCAUACUUUCGGCUCUCUUUAAAUCAUCAGUUUCCAACAGAGGAUUGAGCAUCA
B10: chr6:30809960:30809961:-_ENSMUSG00000025607_ENSMUST00000048774|mus_hu|FALSE|FALSE (ssRNA)
RNA: GGGAGUUCUACAGUCCGACGAUCACUUGAUGCAGCUUCUUGGGCUUCAUUGAUCCAGCGCUUAACCACAUCAUAGCUUAUCUUCAUCAUGUGCAGGGAAGAUACCAGUGCUGAACUGGAUACACUGGAAACUUUAUCCACAAUCAACAGAGGAUUGAGCAUCA
B11: chr1:115282363:115282364:-_ENSG00000009307_ENST00000339438|perfect_dup|FALSE|FALSE (ssRNA)
RNA: GGGAGUUCUACAGUCCGACGAUCAUCAUCUCCUACUUUUAAGUCUUGGAGGUUGCCAUUAUAUUGUGAACAGUGGAAGAAAAGUCUAGCUUGCCGUUCUGAACACUGAAUGAAUCCGUAAGAGGUCAAGAGUUUUUCAAUAACCAACAGAGGAUUGAGCAUCA
B12: chr11:87793471:87793472:-_ENSMUSG00000020483_ENSMUST00000020775|mus_mus|mus_mus_mus_hu_False|18_58 (ssRNA)
RNA: GGGAGUUCUACAGUCCGACGAUCUGGACUUGAAAAUAAAAGAAUAAGCUGGAUCCCCCACCCCCCCACAUUGUCAACCCUAUGCGAGAGUUUUGAAGGCGACUCAUGAAAAUCAGCCUCAAUUGGCGCAAUGACCACCCCACCCAACAGAGGAUUGAGCAUCA
B13: 124382131_124386908_2824_CDS_ENSMUSG00000008153_ENSMUST00000008297|mouse|control|control (ssRNA)
RNA: GGGAGUUCUACAGUCCGACGAUCAAAGCCCACGCAUACCACAAUGAUGAGAGUCGCAGCACUGGGGACCAUGGAGUUCCGGUGGGAGCUGGCCAGGCUGUGUCCAGCCAUCUCAGGAGGAGGCUGGUGACCCCGGUGCAGGAACAACAGAGGAUUGAGCAUCA
B14: chr12:39756943:39756944:-_ENSG00000139116_ENST00000544797|hu_mus|hu_hu_hu_mus_False|18_58 (ssRNA)
RNA: GGGAGUUCUACAGUCCGACGAUCGGUUUGGCUGUUACCCCCAAGGGAAUCCUGCAAGAGUCUUGUCAGCUUAGAGUCUCUAUAGGGGACAUGGGUGGCUCUCUUGCUCUUGUCCCCCAAGGCACUUAUUACAUUCCCAAGAGCCAACAGAGGAUUGAGCAUCA
B15: chr2:119791414:119791415:+_ENSMUSG00000033943_ENSMUST00000110774|mus_hu|motif|central (ssRNA)
RNA: GGGAGUUCUACAGUCCGACGAUCUACUUUACUGAAGGCUUGAAUUUGUUAAUUCUGAUUGAAAAGGUGAGGGAAUGGGAGCGGCUUAGGAUAUGAAAAAAGAAAAUUUUACUGAAUGACACAAAGUCCUUCACUUUGGUAUUCCAACAGAGGAUUGAGCAUCA
B16: chr17:45761549:45761550:+_ENSG00000108424_ENST00000290158|hu_hu|motif|central (ssRNA)
RNA: GGGAGUUCUACAGUCCGACGAUCGACAUGGAAGGGAGGAUAUAAACGAGGAGUUGGAGAAAAACGCAAGCCCAGUUUUUGCGGGAGUGGAAAUGAAAGUGGGAAUGAGGGUCUUGUUUUUAGUCCUCUAAGGACCAGGAAGCACAACAGAGGAUUGAGCAUCA
B17: 181683477_181683597_5564_CDS_ENSMUSG00000026491_ENSMUST00000027768|mouse|control|control (ssRNA)
RNA: GGGAGUUCUACAGUCCGACGAUCAGUUCUCUUCUUAGGAGUGGCAACUGCUGAAGGCUCUUGUUCUGAUGUGACAUUCAGGCUUAGGGCAUGCUGCCUUCUUGUGAGAGUUCUAGAAGAAACCAUGUCAUCAUUCUGGCUGGUCAACAGAGGAUUGAGCAUCA
B18: chr5:80946147:80946148:-_ENSG00000145687_ENST00000505980|hu_hu|FALSE|FALSE (ssRNA)
RNA: GGGAGUUCUACAGUCCGACGAUCUGUUUGAGCUGAUUUCUGAGCUCCUACAUGGAGCAGAUAUUCAUAUACGUAGAGUGCUAACUUCUCCCGGGCCUGGCUGUCGGACGGGACGGCGCUGCUGUUACUCUUGCCUUUGCCGUACAACAGAGGAUUGAGCAUCA
B19: chr9:100852126:100852127:+_ENSMUSG00000037286_ENSMUST00000129269|mus_mus|FALSE|FALSE (ssRNA)
RNA: GGGAGUUCUACAGUCCGACGAUCGCCAUGCUCAGACUCAGGUUCCUGAAUCUGCUCUCCCAUGGGACGGCUGUUUUCUCUAAGUACCGUGGAGGUGAGCUGUGGGGUUGGCAAGGGUCCAGGAGUCUGAAUCAUCGUGUCAGUCAACAGAGGAUUGAGCAUCA
B20: chr4:41951345:41951346:+_ENSG00000109133_ENST00000513702|hu_mus|motif|central (ssRNA)
RNA: GGGAGUUCUACAGUCCGACGAUCAAACAAGUUCCGACAAUAUGGAUUUCUUCUAGAGGAAUAUCGAAGAGUAAGAAAUCGGUAAUAUAUAAAAGGCUGGAGCAAACUUCCUUGGCCACUAAAGAGCAUAAAAACUGUAGCAGGCAACAGAGGAUUGAGCAUCA
B21: chr5:176910979:176910980:-_ENSG00000196923_ENST00000355841|hu_mus|FALSE|FALSE (ssRNA)
RNA: GGGAGUUCUACAGUCCGACGAUCCUCCAGCAUCAAUCUUGAAGUCACAGCCUCGACAUUUUGUGCCAAACAUCUUCUCAUAGUCUCGCUCGCAGUAGGGGGCCCCUUCUUCCAUGUAAAAGGCUCUGUUGCGAAUUGGCGUUUCAACAGAGGAUUGAGCAUCA
B22: 120692271_120696741_4937_CDS_ENSMUSG00000027272_ENSMUST00000028728|mouse|control|control (ssRNA)
RNA: GGGAGUUCUACAGUCCGACGAUCCUCAUCAUCUGCAGACCGUGGACACCUAAAGUGAGAAGCCUGAUUUAGAAGACAGCUGUAGUCCUCAGGAAGCUCUAUCAAACUAUUUCUUUUUCUAGGGUACCUGACCACAGCACUUUUCAACAGAGGAUUGAGCAUCA

The list shows a part of the results.

For this assay, the target named is T1, UNK ZnF1-3 (human, UniProt Q9C0B0 31-174).
T1 sequence: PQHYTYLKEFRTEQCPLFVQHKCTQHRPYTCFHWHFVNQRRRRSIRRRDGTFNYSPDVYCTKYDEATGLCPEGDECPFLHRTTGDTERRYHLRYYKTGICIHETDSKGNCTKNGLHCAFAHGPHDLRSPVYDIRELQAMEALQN
Kind of assay: nsRBNS (natural sequence RNA bind-n-seq); RBNS binding buffer (assumed for nsRBNS): 25 mM Tris pH 7.5, 150 mM KCl, 3 mM MgCl2, 0.01% Triton X-100, 500 ug/ml BSA, 20 U/ml SUPERase-In, 4 C; UNK is unkempt and MSI1 is Musashi-1; names of the RNAs are library labels; protein concentration not given here; high values mean tight binding.
B1 had a binding signal of 0.988 enrichment R.

Molecule B2 gave a binding signal of 0.75 enrichment R.

Molecule B3 yielded a binding signal of 1.12 enrichment R.

B4 gave a binding signal of 0.685 enrichment R.

Molecule B5 had a binding signal of 1.2 enrichment R.

Take B6: the binding signal is 0.253 enrichment R.

For B7, the binding signal was 0.769 enrichment R.

As for B8, the binding signal amounted to 0.549 enrichment R.

For B9, the binding signal came out at 0.737 enrichment R.

Molecule B10 returned a binding signal of 0.841 enrichment R.

B11: the binding signal worked out at 1.19 enrichment R.

As for B12, the binding signal worked out at 1.35 enrichment R.

Molecule B13 had a binding signal of 1.21 enrichment R.

For the molecule B14, the binding signal is 0.71 enrichment R.

In turn, B15 showed a binding signal of 1.74 enrichment R.

Take B16: the binding signal was determined as 2.26 enrichment R.

B17 gave a binding signal of 0.546 enrichment R.

Regarding B18, the binding signal amounted to 0.648 enrichment R.

The molecule B19 displayed a binding signal of 0.8 enrichment R.

B20 yielded a binding signal of 2.46 enrichment R.

B21 yielded a binding signal of 0.719 enrichment R.

Turning to B22, the binding signal worked out at 0.851 enrichment R.

Values taken from publication PMC12136788.
